Reference: the supplement of paper PMC8728848
The other results are listed elsewhere or left out.

Columns and labels:
Assay in all cases: glycan array binding signal (z-score within array); higher = stronger binding
Conditions in all cases: glycan notation: IUPAC condensed, linker removed; mutation: D109R
Gal6S(b1-4)Glc = target: Gal6S(b1-4)Glc
How it was run: (§1)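 Arrays were curated from the Consortium for Functional Glycomics database, 3228 in total, and kept only where the protein sequence was available. Binding is expressed as a within-array Z-score. This score was averaged across arrays of the same protein sequence at different concentrations or buffers and across linkers, and negative values can be read as non-binding.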

Gal6S(b1-4)Glc6S = target: Gal6S(b1-4)Glc6S
How it was run: as §1

Gal6S(b1-4)GlcNAc = target: Gal6S(b1-4)GlcNAc
How it was run: as §1

Gal6S(b1-4)GlcNAc6S = target: Gal6S(b1-4)GlcNAc6S
How it was run: as §1

GalNAc(a1-3)Gal = target: GalNAc(a1-3)Gal
How it was run: as §1

GalNAc(a1-3)GalNAc = target: GalNAc(a1-3)GalNAc
How it was run: as §1

[1] = target: GalNAc(a1-3)GalNAc(b1-3)Gal(a1-4)Gal(b1-4)Glc
How it was run: as §1

[2] = target: GalNAc(a1-3)GalNAc(b1-3)Gal(a1-4)Gal(b1-4)GlcNAc
How it was run: as §1

GalNAc(b1-3)Gal = target: GalNAc(b1-3)Gal
How it was run: as §1

[3] = target: GalNAc(b1-3)Gal(a1-4)Gal(b1-4)GlcNAc
How it was run: as §1

[4] = target: GalNAc(b1-3)Gal(a1-4)Gal(b1-4)GlcNAc(b1-3)Gal(b1-4)Glc
How it was run: as §1

[5] = target: GalNAc(b1-3)Gal(a1-6)Gal(b1-4)Glc
How it was run: as §1

GalNAc(b1-3)GalNAc = target: GalNAc(b1-3)GalNAc
How it was run: as §1

GalNAc(b1-3)GlcNAc = target: GalNAc(b1-3)GlcNAc
How it was run: as §1

GalNAc(b1-4)Gal(b1-4)Glc = target: GalNAc(b1-4)Gal(b1-4)Glc
How it was run: as §1

GalNAc(b1-4)GlcNAc = target: GalNAc(b1-4)GlcNAc
How it was run: as §1

[6] = target: GalNAc(b1-4)GlcNAc(b1-2)Man
How it was run: as §1

[7] = target: GalNAc(b1-4)GlcNAc(b1-2)Man(a1-3)[GalNAc(b1-4)GlcNAc(b1-2)Man(a1-6)]Man(b1-4)GlcNAc(b1-4)GlcNAc
How it was run: as §1

[8] = target: GalNAc(b1-4)GlcNAc(b1-3)GalNAc(b1-4)GlcNAc
How it was run: as §1

GalNAc(b1-4)GlcNAc6S = target: GalNAc(b1-4)GlcNAc6S
How it was run: as §1

GalNAc(b1-6)GalNAc = target: GalNAc(b1-6)GalNAc
How it was run: as §1

GalNAc3S(b1-4)GlcNAc = target: GalNAc3S(b1-4)GlcNAc
How it was run: as §1

GalNAc3S(b1-4)GlcNAc3S = target: GalNAc3S(b1-4)GlcNAc3S
How it was run: as §1

[9] = target: GalNAc3S(b1-4)[Fuc(a1-3)]GlcNAc
How it was run: as §1

GalNAc4S6S(b1-4)GlcNAc = target: GalNAc4S6S(b1-4)GlcNAc
How it was run: as §1

GalNAc6S(b1-4)GlcNAc = target: GalNAc6S(b1-4)GlcNAc
How it was run: as §1

Glc(a1-4)Glc = target: Glc(a1-4)Glc
How it was run: as §1

[10] = target: Glc(a1-4)Glc(a1-4)Glc(a1-4)Glc
How it was run: as §1

Glc(a1-6)Glc(a1-6)Glc = target: Glc(a1-6)Glc(a1-6)Glc
How it was run: as §1

[11] = target: Glc(a1-6)Glc(a1-6)Glc(a1-6)Glc
How it was run: as §1

Glc(b1-4)Glc = target: Glc(b1-4)Glc
How it was run: as §1

Glc(b1-6)Glc = target: Glc(b1-6)Glc
How it was run: as §1

GlcA(b1-3)Gal = target: GlcA(b1-3)Gal
How it was run: as §1

GlcA(b1-3)GlcNAc = target: GlcA(b1-3)GlcNAc
How it was run: as §1

GlcA(b1-6)Gal = target: GlcA(b1-6)Gal
How it was run: as §1

[12] = target: GlcA3S(b1-3)Gal(b1-4)GlcNAc(b1-2)Man
How it was run: as §1

[13] = target: GlcA3S(b1-3)Gal(b1-4)GlcNAc(b1-3)Gal(b1-4)Glc
How it was run: as §1

[14] = target: GlcNAc(a1-3)Gal(b1-4)GlcNAc
How it was run: as §1

[15] = target: GlcNAc(a1-4)Gal(b1-3)GlcNAc
How it was run: as §1

[16] = target: GlcNAc(a1-4)Gal(b1-4)GalNAc
How it was run: as §1

[17] = target: GlcNAc(a1-4)Gal(b1-4)GlcNAc
How it was run: as §1

[18] = target: GlcNAc(a1-4)Gal(b1-4)GlcNAc(b1-3)Gal(b1-4)Glc
How it was run: as §1

[19] = target: GlcNAc(a1-4)Gal(b1-4)GlcNAc(b1-3)Gal(b1-4)GlcNAc
How it was run: as §1

[20] = target: GlcNAc(a1-4)Gal(b1-4)GlcNAc(b1-3)Gal(b1-4)GlcNAc(b1-3)Gal(b1-4)GlcNAc
How it was run: as §1

[21] = target: GlcNAc(a1-4)Gal(b1-4)GlcNAc(b1-3)Gal(b1-4)[Fuc(a1-3)]GlcNAc(b1-3)Gal(b1-4)[Fuc(a1-3)]GlcNAc
How it was run: as §1

B1: MpL2 (Macrolepiota procera) (protein)
chain: MSTQVSSGQTYKITNVKAGTVIDLSGEDNKSIIGYPYHSGKNQQWTFNWTGKAWTLRSASSGSYLGIEGTPADGTRLVAVNDPFEWHIWRDEANENAFRIFVPFTNYNLRLSGYGDTTPGTPVQLWWTWEGLHQTWTIDRP
- glycan array binding signal (z-score) (Gal6S(b1-4)Glc): -0.27
- glycan array binding signal (z-score) (Gal6S(b1-4)Glc6S): -0.26
- glycan array binding signal (z-score) (Gal6S(b1-4)GlcNAc): -0.269
- glycan array binding signal (z-score) (Gal6S(b1-4)GlcNAc6S): -0.289
- glycan array binding signal (z-score) (GalNAc(a1-3)Gal): -0.262
- glycan array binding signal (z-score) (GalNAc(a1-3)GalNAc): -0.244
- glycan array binding signal (z-score) [1]: -0.254
- glycan array binding signal (z-score) [2]: -0.264
- glycan array binding signal (z-score) (GalNAc(b1-3)Gal): -0.247
- glycan array binding signal (z-score) [3]: -0.19
- glycan array binding signal (z-score) [4]: -0.2
- glycan array binding signal (z-score) [5]: -0.257
- glycan array binding signal (z-score) (GalNAc(b1-3)GalNAc): -0.254
- glycan array binding signal (z-score) (GalNAc(b1-3)GlcNAc): -0.068
- glycan array binding signal (z-score) (GalNAc(b1-4)Gal(b1-4)Glc): -0.254
- glycan array binding signal (z-score) (GalNAc(b1-4)GlcNAc): 0.327
- glycan array binding signal (z-score) [6]: 0.399
- glycan array binding signal (z-score) [7]: -0.2
- glycan array binding signal (z-score) [8]: 3.89
- glycan array binding signal (z-score) (GalNAc(b1-4)GlcNAc6S): -0.23
- glycan array binding signal (z-score) (GalNAc(b1-6)GalNAc): -0.261
- glycan array binding signal (z-score) (GalNAc3S(b1-4)GlcNAc): -0.269
- glycan array binding signal (z-score) (GalNAc3S(b1-4)GlcNAc3S): -0.255
- glycan array binding signal (z-score) [9]: -0.254
- glycan array binding signal (z-score) (GalNAc4S6S(b1-4)GlcNAc): -0.266
- glycan array binding signal (z-score) (GalNAc6S(b1-4)GlcNAc): -0.262
- glycan array binding signal (z-score) (Glc(a1-4)Glc): -0.254
- glycan array binding signal (z-score) [10]: -0.296
- glycan array binding signal (z-score) (Glc(a1-6)Glc(a1-6)Glc): -0.255
- glycan array binding signal (z-score) [11]: -0.259
- glycan array binding signal (z-score) (Glc(b1-4)Glc): -0.265
- glycan array binding signal (z-score) (Glc(b1-6)Glc): -0.245
- glycan array binding signal (z-score) (GlcA(b1-3)Gal): -0.281
- glycan array binding signal (z-score) (GlcA(b1-3)GlcNAc): -0.244
- glycan array binding signal (z-score) (GlcA(b1-6)Gal): -0.242
- glycan array binding signal (z-score) [12]: -0.266
- glycan array binding signal (z-score) [13]: -0.307
- glycan array binding signal (z-score) [14]: -0.279
- glycan array binding signal (z-score) [15]: -0.254
- glycan array binding signal (z-score) [16]: -0.275
- glycan array binding signal (z-score) [17]: -0.243
- glycan array binding signal (z-score) [18]: -0.281
- glycan array binding signal (z-score) [19]: -0.257
- glycan array binding signal (z-score) [20]: -0.266
- glycan array binding signal (z-score) [21]: -0.239
